Experimental data: PubChem BioAssay AID588855 (National Center for Advancing Translational Sciences (NCATS), 2011)
The campaign covered roughly 410,000 compounds. About 5,000 (1.2%) were called active. The shares of active, inactive and inconclusive entries below differ from those in the screen. Calls come from the whole dose curve; as a rule, active = well fitted inhibition curve with a large enough effect; inconclusive = small, poorly fitted or top-dose-only effect; inactive = no such curve, though single readings can be large or run the other way. Potencies beside an inconclusive call are fits to weak or partial responses and may not hold up.

assay: qHTS for Inhibitors of TGF-b; settings: HepG2 CAGA-GFP TGF-b/SMAD3 reporter, GFP fluorescence, 18 h, TGF-beta stimulated, 500 pg/mL final; series mostly up to 46.1 µM; activity, negative = inhibition: at the top concentration; note: nearly all actives have a fitted effect of over 65% in size
Procedure, shortened: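 Cell-based qHTS in HEPG2 carrying a CAGA-GFP Smad reporter; compounds added before 500 pg/mL final TGF-beta, 18 h incubation at 37 degrees C, GFP fluorescence quantified per cell by imaging cytometry.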
% is set by controls: 0 for no effect and ±100 for the full control effect; potency is the fitted concentration of half-maximal effect; tags give direction and shape of the fitted curve.

Row | Structure (SMILES) | Potency | activity, negative = inhibition
1 | Cc1ccc(NS(=O)(=O)c2cccc(C(=O)NNC(=O)NC3CCCCC3)c2)c(C)c1 | inconclusive: 35.5 µM [inhibitor, single point] | 
2 | O=C(NN=C1CCCC1)c1ccc(Cl)cc1 |  | inactive: 2.03%
3 | CCCCNC(=S)N/N=C/c1ccccc1F | inconclusive: 20 µM [inhibitor, partial curve, poor fit] | 
4 | CCCC(NC(=O)Cc1c(C)c2c(cc(C)c3c(C)coc32)oc1=O)C(=O)O (stereo not drawn) |  | inactive: -1.75%
5 | CCn1c(=O)c2c(nc3n2CCN3c2ccc(OC)cc2)n(C)c1=O |  | inactive: 2.58%
6 | C[C@H](CO)N1C[C@H](C)[C@H](CN(C)S(C)(=O)=O)Oc2c(cccc2N(C)C)C1=O | inconclusive: 0.794 µM [inhibitor, full curve, poor fit] | 
7 | Cc1ccc(-c2noc(CCC(=O)N(C)c3ccccc3F)n2)cc1 |  | inactive: -18.8%
8 | Cc1cccc(NC(=S)N/N=C/c2c[nH]c3ccccc23)c1 | inconclusive: 35.5 µM [inhibitor, single point] | 
9 | CCC(=O)Nc1c(S(=O)(=O)c2ccccc2)c2nc3ccccc3nc2n1C(C)c1ccccc1 (stereo not drawn) | active: 12.6 µM | 
10 | CCCCCCCCCCCCCCCCn1cc[n+](CC(C)=O)c1 | active: 20 µM | 
11 | O=C(NCCc1ccccc1)C(c1cccs1)N(C(=O)CCl)c1ccc(Cl)cc1 (stereo not drawn) | active: 11.2 µM | 
12 | Cc1ccc(C2CC(=O)Nc3cc4c(cc32)OCCO4)cc1Br (stereo not drawn) | active: 12.6 µM | 
13 | Cc1ccc2oc(=O)cc(CN3CCN(C/C=C/c4ccccc4)CC3)c2c1 |  | inactive: 21.3%
14 | O=C(COc1ccccc1)Nc1ccccc1N1CCCCC1 |  | inactive: -6.68%
15 | COc1ccc(-c2nnc(NC(=O)c3ccc(S(=O)(=O)N4CCc5ccccc5C4)cc3)o2)cc1 |  | inactive: -9.88%
16 | CCCCCc1c(C)nc(NCc2ccccc2)[nH]c1=O | inconclusive: 35.5 µM [inhibitor, single point] | 
17 | Cc1ccccc1NC(=O)CN1C(=O)COc2ccc(Cl)cc21 | inconclusive: 0.398 µM [inhibitor, partial curve, poor fit] | 
18 | CCN(CC)S(=O)(=O)c1cccc(-c2nnc(SCC(=O)c3cc(C)n(C)c3C)o2)c1 | inconclusive: 11.2 µM [inhibitor, single point] | 
19 | Cc1ccc(-c2nc3sc4c(N)ncnc4c3c3c2CCCC3)cc1 |  | inactive: -12.1%
20 | COC(=O)c1nnn(CC(=O)NC(=O)Nc2ccc(F)cc2)c1C(=O)OC | inconclusive: 15.8 µM [inhibitor, single point] | 
21 | COc1cc(CNCCN2CCOCC2)ccc1OCc1ccc(Cl)cc1Cl | active: 20 µM | 
22 | Cc1ccc(CNC(=O)Nc2cc(C(=O)NCc3cccc(F)c3)ccc2N2CCCC2)cc1 | inconclusive: 6.31 µM [inhibitor, full curve] | 
23 | O=C(Nc1ccc(S(=O)(=O)N2CCC(c3nc4ccccc4s3)CC2)cc1)c1ccccc1 |  | inactive: -5.98%

Row | Structure (SMILES) | Potency | activity, negative = inhibition
24 | C[C@]12c3[nH]c4ccc(Cl)cc4c3CCN1C(=O)[C@@H](CC(=O)NCCC1=CCCCC1)C[C@@H]2C(=O)N1CCOCC1 | inconclusive: 11.2 µM [inhibitor, partial curve] | 
25 | Cc1cccc(Nc2nnc(SCC(=O)Nc3ccccc3[N+](=O)[O-])s2)c1C | inconclusive: 14.1 µM [inhibitor, partial curve, poor fit] | 
26 | CCCCn1c(CNC(=O)C23CC4CC(CC(C4)C2)C3)nnc1SCC(=O)Nc1ccc(C)cc1 | inconclusive: 31.6 µM [inhibitor, partial curve, poor fit] | 
27 | CCOC(=O)c1ccc(NCc2nc3ccccc3n2C)cc1 |  | inactive: -8.03%
28 | Cc1cccc(N(CC(=O)NC(C)(C)C)C(=O)CNC(=O)c2cccs2)c1C |  | inactive: -14.2%
29 | O=C(CCNc1ccc(Br)cc1)c1cccc([N+](=O)[O-])c1 | active: 12.6 µM | 
30 | O=c1c2cc(N3CCOCC3)ccc2[nH]c(=S)n1CCCN1CCCC1 |  | inactive: -16.9%
31 | COCCNC(=S)N1CCc2cc(OC)c(OC)cc2C1COc1ccc(C(C)C)cc1 (stereo not drawn) |  | inactive: -27.1%
32 | COc1ccccc1NS(=O)(=O)c1cc(NC(=O)c2ccncc2)ccc1N1CCOCC1 |  | inactive: -12.5%
33 | CCOCCn1c(CN2CCN(C)CC2)nc2c1c(=O)n(C)c(=O)n2C |  | inactive: -2.12%
34 | O=C(c1[nH]c(C(F)(F)F)nc1-c1ccccc1)N1CCC(Cc2ccccc2)CC1 | inconclusive: 20 µM [inhibitor, single point] | 
35 | COC(=O)c1cccc(-c2ccc(C(c3c(C)[nH][nH]c3=O)c3c(C)[nH][nH]c3=O)o2)c1 | inconclusive: 35.5 µM [inhibitor, single point] | 
36 | Cc1cc(C)c2sc(N(CCN(C)C)C(=O)c3c(F)cccc3F)nc2c1 | inconclusive: 15.8 µM [inhibitor, single point] | 
37 | O=C(Cc1cccs1)Nc1nc2c(ccc3ccccc32)s1 | active: 14.1 µM | 
38 | Cc1ccc(N2CC(C(=O)Nc3ccc(S(=O)(=O)NCC4CCCO4)cc3)CC2=O)cc1 (stereo not drawn) | inconclusive: 11.2 µM [inhibitor, single point] | 
39 | CCn1cc(S(=O)(=O)c2cc(C)cc(C)c2)c(=O)c2cc(F)c(N3CCCCC3)cc21 | inconclusive: 35.5 µM [inhibitor, partial curve, poor fit] | 
40 | N#CCCn1cc(C(=O)N2CCCCC2)c(-c2cccc([N+](=O)[O-])c2)n1 | inconclusive: 6.31 µM [inhibitor, full curve, poor fit] | 
41 | O=C(CNCCC1=CCCCC1)Nc1ccc(N2CCCCCC2)cc1 | active: 15.8 µM | 
42 | Cc1cccc(C)c1OCC(O)CNS(=O)(=O)c1ccccc1C(=O)N1CCCCC1 (stereo not drawn) |  | inactive: -6.1%
43 | CC(C)(C)Nc1ncnc2sc(-c3ccccc3)cc12 | inconclusive: 20 µM [inhibitor, partial curve, poor fit] | 
44 | Cc1csc(NC(=O)c2cccc(Cn3nc(C)c(Br)c3C)c2)n1 | inconclusive: 35.5 µM [inhibitor, single point] | 
45 | CCN(Cc1ccncc1)C(=O)c1cc(COc2c(C)cccc2C)on1 | inconclusive: 35.5 µM [inhibitor, single point] | 
46 | COc1ccccc1CN(Cc1nc2ccccc2c(=O)[nH]1)S(=O)(=O)c1ccc2ccccc2c1 | inconclusive: 15.8 µM [inhibitor, single point] | 

Row | Structure (SMILES) | Potency | activity, negative = inhibition
47 | COc1ccc(Nc2c3c(nc4ccccc24)CCC3)cc1Cl | inconclusive: 22.4 µM [inhibitor, single point] | 
48 | CCOC(=O)N1CCN(C(=O)c2ccc3c(c2)N(Cc2ccc(F)cc2)CCS3)CC1 | inconclusive: 35.5 µM [inhibitor, single point] | 
49 | COc1ccc(NC(=O)CN(C)CC(=O)NCc2ccc(C)cc2)cc1 |  | inactive: 4.52%
50 | COc1ccc(-c2noc3c2-c2nc(C(C)C)sc2CC3)cc1 | inconclusive: 15.8 µM [inhibitor, single point] | 
51 | Cc1ccc(S(=O)(=O)N(C)c2ccc(N)cc2)cc1 | inconclusive: 6.31 µM [inhibitor, partial curve, poor fit] | 
52 | CC1CCN(C(=O)CSc2nnc3c(n2)[nH]c2ccccc23)CC1 | inconclusive: 14.1 µM [inhibitor, single point] | 
53 | Clc1ccc(Cn2nnc3ccccc32)cc1 | inconclusive: 2 µM [inhibitor, partial curve, poor fit] | 
54 | COc1c(/C=N/NC(=O)[C@H]2C[C@@H]2c2ccccc2)c(CCN(C)C(C)=O)cc2c1OCO2 | inconclusive: 22.4 µM [inhibitor, single point] | 
55 | CC(C)C1C(=O)N(Cc2cn(CCC3OCCO3)nn2)CCS(=O)(=O)N1Cc1ccc(-c2ccccc2C(F)(F)F)cc1 (stereo not drawn) | inconclusive: 28.2 µM [inhibitor, partial curve, poor fit] | 
56 | O=C(NC(=S)Nc1ccc(Cc2ccncc2)cc1)c1ccc(F)cc1 |  | inactive: -11%
57 | CCCCOc1ccc(CSC(=N)N)cc1[N+](=O)[O-] | inconclusive: 22.4 µM [inhibitor, single point] | 
58 | CCCc1ccc(C(C)NC(=S)NCc2ccc(F)cc2)cc1 (stereo not drawn) | inconclusive: 8.91 µM [inhibitor, partial curve, poor fit] | 
59 | CCOC(=O)CN(C(=O)Cn1nnc(-c2ccc(OC)cc2)n1)C(C(=O)NC1CCCC1)c1ccc(F)cc1 (stereo not drawn) |  | inactive: -6.64%
60 | Cc1ccc(C2=Nc3ccccc3N(CC(=O)NCc3ccccc3Cl)C(=O)C2)cc1C | inconclusive: 2.82 µM [inhibitor, full curve, poor fit] | 
61 | Cc1cccc(N2CCc3c2nc2ccc(Br)cc2c3N)c1 | inconclusive: 35.5 µM [inhibitor, single point] | 
62 | Cc1ccc(S(=O)(=O)N(CC(=O)NCCSc2ccccn2)c2cc(C)cc(C)c2)cc1 | inconclusive: 14.1 µM [inhibitor, single point] | 
63 | Oc1ccc(NC(=S)N=Nc2c(O)[nH]c3ccccc23)cc1 | inconclusive: 35.5 µM [inhibitor, single point] | 
64 | CC1CCCN(S(=O)(=O)c2ccc(C(=O)Nc3nnc(-c4ccncc4)o3)cc2)C1 (stereo not drawn) | inconclusive: 17.8 µM [inhibitor, partial curve, poor fit] | 
65 | C=C1C(=O)[C@]23C[C@H]1CCC2[C@@]1(C)C(C[C@@H]3O)[C@](C)(C(=O)OC)CC[C@@H]1O (stereo partly drawn) | active: 0.794 µM | 
66 | CCOCCCN(Cc1ccco1)S(=O)(=O)c1cc2c(cc1C)NC(=O)CO2 | inconclusive: 0.0891 µM [inhibitor, full curve, poor fit] | 
67 | C/C(=N\Nc1nc2ccccc2[nH]1)c1cc2ccccc2o1 | inconclusive: 35.5 µM [inhibitor, single point] | 
68 | Cc1cc(OCC(O)CN2CCc3ccccc3C2)cc(C(C)C)c1 (stereo not drawn) | inconclusive: 35.5 µM [inhibitor, single point] | 
